Assay results: the supplement of paper PMC10338343
± gives the standard deviation. The full ranking holds about 6,600 sequences; the median of “pre-steady-state target cleavage rate” is about 0.07, and the highest 2% start at about 0.72. The entries are a selection whose mix differs from that of the whole data set.

Each sequence was assayed on MIWI (PIWIL1) piRISC loaded with Kctd7 piRNA (30 nt) (assay: pre-steady-state target cleavage rate (min^-1); MIWI and MILI are mouse PIWI proteins and EfPiwi is from a freshwater sponge; tags in brackets are library labels; higher = faster piRNA-guided slicing of the target). Details: guide: Kctd7 piRNA 5'p-UGUUAAUCUCUCAGAGAAGGUGACAGUGAU; auxiliary factor: 500 nM mouse GTSF1.
Protocol: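 Cleave-'n-Seq: a library of target RNAs (target site embedded in constant flanks, ACAGCATTCCGCGTTAGTGATATCCG... 5' flank; DNA-blocked outside the site) at 0.1 nM was incubated with 1 nM active mouse MILI or MIWI piRISC (synthetic 5'-monophosphorylated piRNA guide) with or without 500 nM mouse GTSF1 at 33 °C for 1 min to 16 h. Uncleaved targets were sequenced and normalised to non-target controls, and the pooled three trials were fitted to a burst-and-steady-state model to give the pre-steady-state cleavage rate (min^-1; k3 is constrained to at most 1e-4). Sequence is the target site only; target names encode pairing extent (gX:gY) and contiguous / 1-mismatch / 2-mismatch / bulge geometry. Fits with R² ≤ 0 are excluded.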
With AUCACUGUCACCUUCUCUCAGAGAAUAACA the “pre-steady-state target cleavage rate” value was 0.0453 ± 0.012.
With UAGUGACAGUCCAUCUCUGAGAGAUUAACA the “pre-steady-state target cleavage rate” value was 0.00671 ± 0.0019.
For UAGUGUGUCACCUUCUCUGAGAGCAUUAACA, the “pre-steady-state target cleavage rate” value was 0.347 ± 0.034.
In the case of UAGUGUGUCACCUUCUCAGAGAGAUUAACA, the “pre-steady-state target cleavage rate” value is reported as 0.44 ± 0.028.
With UAGUGACUCACGUUCUCUGAGAGAUUAUCA the “pre-steady-state target cleavage rate” value was 0.0666 ± 0.01.
For UAGUGAGUCACCUUCUCUGAGAGAUUCAACA, the “pre-steady-state target cleavage rate” value was 0.393 ± 0.067.
With AUCACUGUCACCUUCUCACUGAGAUUAACA the “pre-steady-state target cleavage rate” value was 0.00716 ± 0.0042.
In the case of UAGUGACACACCAACUCUGAGAGAUUAAGA, the “pre-steady-state target cleavage rate” value is reported as 0.00572 ± 0.0031.
With UAGUGACAGUCCUUUCUCUGAGAGAUUAACA the “pre-steady-state target cleavage rate” value was 0.503 ± 0.038.
For UUCACUUUCACCUUCUCUGAGAGAUUAACA, the “pre-steady-state target cleavage rate” value was 0.633 ± 0.027.
With UUCACUGUCACCAUCUCUCAGAGAUUAACA the “pre-steady-state target cleavage rate” value was 0.0623 ± 0.0089.
UUCACUGUGACCUUCUCAGAGAGAUUAACA was tested, and the “pre-steady-state target cleavage rate” value was 0.238 ± 0.018.
“UAGUGACAGUCCUUCUCUGAGAGAUUAACG [g2:g20:cont:t1G]” was tested, and the “pre-steady-state target cleavage rate” value was 0.0562 ± 0.009.
UAGUGACAGUGGAUCUCUGACUGAUUAACA was tested, and the “pre-steady-state target cleavage rate” value was less than 0.0001.
In the case of UAGUGACUCACCUUCUCUGAGAUGAUUAACA, the “pre-steady-state target cleavage rate” value is reported as 0.00526 ± 0.0026.
With UAGUGACACACCUUCUCUCAGACAUUAACA the “pre-steady-state target cleavage rate” value was 0.0146 ± 0.0058.
UAGUGACUCACCUUCUCUGUCAGAUUAACA was tested, and the “pre-steady-state target cleavage rate” value was 0.0037 ± 0.0029.
For AUCACUGUCACCUUCUCUCAGAGAUUAUGA, the “pre-steady-state target cleavage rate” value was 0.0256 ± 0.0087.
UAGACUCUCACCUUCUCUGAGAGAAUAACA was tested, and the “pre-steady-state target cleavage rate” value was 0.238 ± 0.038.
For UACACUGUCACCUUCUCUGGGAGAUUAACA, the “pre-steady-state target cleavage rate” value was 0.477 ± 0.029.
In the case of UAGUGACACACCUUCUCUGAGAGAUUUAGA, the “pre-steady-state target cleavage rate” value is reported as 0.0271 ± 0.0099.
With UAGUGAGACACCUUCUCUGAGAGAAUAACA the “pre-steady-state target cleavage rate” value was 0.13 ± 0.02.
In the case of UAGUGACACACCAUCUCUGACAGAUUAACA, the “pre-steady-state target cleavage rate” value is reported as 0.0227 ± 0.0047.
UACACUCUCACCUUCUCUGAGAGAUAUUGA was tested, and the “pre-steady-state target cleavage rate” value was 0.0441 ± 0.015.
UAGUCUGACACCUUCUCUGAGAGAUUAUCA was tested, and the “pre-steady-state target cleavage rate” value was 0.265 ± 0.027.
In the case of UUCACUGUCACCUUCUCUCGAGAGAUUAACA, the “pre-steady-state target cleavage rate” value is reported as 0.593 ± 0.17.
UUCACAGUGACCUUCUCUGAGAGAUUAACA was tested, and the “pre-steady-state target cleavage rate” value was 0.463 ± 0.029.
In the case of UAGUGACAGACCUUCUCUGAGAGAUUAUGA, the “pre-steady-state target cleavage rate” value is reported as 0.00752 ± 0.0042.
For UACACACUCACCUUCUCUGAGAGAUUAAGA, the “pre-steady-state target cleavage rate” value was 0.106 ± 0.024.
For UACACUGUCACCUUCUCUGAGAGUUAACA, the “pre-steady-state target cleavage rate” value was 0.372 ± 0.11.
For UUCACUGUCAGCUUCUCUGAGAGAUAAACA, the “pre-steady-state target cleavage rate” value was 0.306 ± 0.03.
In the case of UAGUGUGUCAGCUUCUCUGAGAGAAUAACA, the “pre-steady-state target cleavage rate” value is reported as 0.296 ± 0.045.
UAGUGACAGACCUUCUCUGAGAGAUUAAGCA was tested, and the “pre-steady-state target cleavage rate” value was 0.0779 ± 0.016.
With UAGUGUGUCACCUUCUCUGAGAAGAUUAACA the “pre-steady-state target cleavage rate” value was 0.017 ± 0.005.
For UAGUGAGUCUGCUUCUCUGAGAGAUUAUGA, the “pre-steady-state target cleavage rate” value was 0.00288 ± 0.0022.
UAGUCAGUCACCUUCUCUGAGAGAUUAAGA was tested, and the “pre-steady-state target cleavage rate” value was 0.141 ± 0.02.
In the case of UAGACUCUCACCUUCUGUGAGAGAUUAACA, the “pre-steady-state target cleavage rate” value is reported as 0.093 ± 0.012.
In the case of “UUCACUGUCACCUUCUCUGAGAGAUAUUGA [g6:g29:cont:t1A]”, the “pre-steady-state target cleavage rate” value is reported as 0.0824 ± 0.022.
For UAGUGAGUCAGGAUCUCUGAGAGAUUAACA, the “pre-steady-state target cleavage rate” value was 0.00821 ± 0.0023.
UACACUGUCACCUUACUCUGAGAGAUUAACA was tested, and the “pre-steady-state target cleavage rate” value was 0.579 ± 0.044.
With UAGUCUGUCACCUUCACUGAGAGAUAAACA the “pre-steady-state target cleavage rate” value was 0.183 ± 0.019.
With AUCUCUGUCACCUUCACUGAGAGAUUAACA the “pre-steady-state target cleavage rate” value was 0.493 ± 0.028.
With UAGUGAGUCACCUUCUCUCAGAGAUUAUGA the “pre-steady-state target cleavage rate” value was 0.00636 ± 0.004.
For UUCACAGUCACCUUCUCUGAGAGAUAUUGA, the “pre-steady-state target cleavage rate” value was 0.117 ± 0.037.
For UAGUGAGUCACCUUCUGUGACAGAUUAACA, the “pre-steady-state target cleavage rate” value was 0.307 ± 0.053.
UACACUGUCACCUUCUCUGUGAGAUUAAGA was tested, and the “pre-steady-state target cleavage rate” value was 0.0759 ± 0.02.
In the case of UACACUGUCACCUUCAGUGAGAGAUUAUGA, the “pre-steady-state target cleavage rate” value is reported as 0.00705 ± 0.005.
UAGUGUGUCCCUUCUCUGAGAGAUUAACA was tested, and the “pre-steady-state target cleavage rate” value was 0.414 ± 0.031.
In the case of UAGACUGUCACCUUCUCGGAGAGAUUAACA, the “pre-steady-state target cleavage rate” value is reported as 0.218 ± 0.012.
For UAGUGAGUCACCUUCUCUGUGAGUUUAACA, the “pre-steady-state target cleavage rate” value was 0.11 ± 0.021.
UAGACUGUCACCUUCUCUGAGAGAUUACACA was tested, and the “pre-steady-state target cleavage rate” value was 0.33 ± 0.047.
For UAGUGACAGUGCUUCUCUGAGAGAUAAACA, the “pre-steady-state target cleavage rate” value was 0.00612 ± 0.0024.
For AUCACUGUGUCCUUCUCUGAGAGAUUAAGA, the “pre-steady-state target cleavage rate” value was 0.161 ± 0.027.
For AUCACUGUCACCUUCUCUGAGAGAUUAGACA, the “pre-steady-state target cleavage rate” value was 0.392 ± 0.065.
With UACACAGUCUCCUUCUCUGAGAGAUUAACA the “pre-steady-state target cleavage rate” value was 0.451 ± 0.032.
For UUCACUGUCACCUUCUCUGAGAGUAAAUGA, the “pre-steady-state target cleavage rate” value was 0.172 ± 0.048.
For UACACUGUCAGGAUCUCUGAGAGAUUAACA, the “pre-steady-state target cleavage rate” value was 0.132 ± 0.017.
With UAGUGACAGUCCUUCUCUGAGAGGUUAACA the “pre-steady-state target cleavage rate” value was 0.0155 ± 0.0032.
For UAGACAGUCACCUUCUCUGAGAGAUUUUGA, the “pre-steady-state target cleavage rate” value was 0.0433 ± 0.0095.
For UAGUGACAGUCCUUCUCUGAGAGAUAAUCA, the “pre-steady-state target cleavage rate” value was 0.00284 ± 0.0022.
In the case of UAGACUGUCACCUUGUCUGAGAGAUUUUGA, the “pre-steady-state target cleavage rate” value is reported as 0.234 ± 0.066.
For UAGUGACACACGUUCUCUGAGAGAUUUACA, the “pre-steady-state target cleavage rate” value was 0.0739 ± 0.014.
With UAGUGACAGUGGAACUCUGAGUCUUUAACA the “pre-steady-state target cleavage rate” value was 0.0246 ± 0.014.
UUCACUGUCACCUUCUCUGAGAAGAUUAACA was tested, and the “pre-steady-state target cleavage rate” value was 0.0445 ± 0.0082.
UAGUCUGAGACCUUCUCUGAGAGAUUAAGA was tested, and the “pre-steady-state target cleavage rate” value was 0.0609 ± 0.01.
For UAGUCUGUGACCUUCUCUGAGAGAUAAACA, the “pre-steady-state target cleavage rate” value was 0.266 ± 0.021.
UAGUGACAGACCAUCUCUGAGAGAUUAAGA was tested, and the “pre-steady-state target cleavage rate” value was 0.00549 ± 0.0026.
In the case of UACACUGUCACCUUCUCUCUGAGAUUAAGA, the “pre-steady-state target cleavage rate” value is reported as 0.0125 ± 0.0076.
UUCACUGUCACCUUCUCUCAGAGAUUAAGA was tested, and the “pre-steady-state target cleavage rate” value was 0.0566 ± 0.013.
For UAGUGAGUCACCUACUGUGAGAGAUUAACA, the “pre-steady-state target cleavage rate” value was 0.337 ± 0.022.
In the case of UACACUGUCAGCUUCUCUGAGAGAUUUUGA, the “pre-steady-state target cleavage rate” value is reported as 0.009 ± 0.0033.
For UUCACAGUCACCUUCUCUGUGAGAUUAACA, the “pre-steady-state target cleavage rate” value was 0.116 ± 0.019.
AUCACUGUCACCUUCUCAGAGAGAUUUACA was tested, and the “pre-steady-state target cleavage rate” value was 0.279 ± 0.042.
For UUCACUGUCACCAUCUCUGAGAGAUUUUGA, the “pre-steady-state target cleavage rate” value was 0.0248 ± 0.0096.
With AUCACUGUCACCUACUCUGAGAGAUUUACA the “pre-steady-state target cleavage rate” value was 0.393 ± 0.063.
For UAGUCACUCACCUUCUCUGAGAGAUAUUGA, the “pre-steady-state target cleavage rate” value was 0.0175 ± 0.0051.
In the case of UAGUCUGUCACCUACUCUGAGAGUUUAACA, the “pre-steady-state target cleavage rate” value is reported as 0.276 ± 0.047.
UAGUGACACACCUUCACUCAGAGAUUAACA was tested, and the “pre-steady-state target cleavage rate” value was 0.0045 ± 0.004.
UAGUGACAGACCUUCUAUGAGAGAUUAACA was tested, and the “pre-steady-state target cleavage rate” value was 0.0147 ± 0.0058.
In the case of UUCUGUGUCACCUUCUCUGAGAGAUUAUGA, the “pre-steady-state target cleavage rate” value is reported as 0.114 ± 0.018.
UAGUGUGUCUCCUUCUCUGAGAGAUUUACA was tested, and the “pre-steady-state target cleavage rate” value was 0.0537 ± 0.011.
UAGUGUGUCACCUUCUCUGAGAGAUAACA was tested, and the “pre-steady-state target cleavage rate” value was 0.0418 ± 0.011.
For UAGUGACAGACCUUCUCUGUGAGAUUAAGA, the “pre-steady-state target cleavage rate” value was 0.00996 ± 0.0042.
In the case of UAGUGACACACCUUGUCUGAGAGAUUAUCA, the “pre-steady-state target cleavage rate” value is reported as 0.0171 ± 0.0084.
In the case of UAGUCUGUCAGGAUCUCUGAGAGAUUAACA, the “pre-steady-state target cleavage rate” value is reported as 0.0642 ± 0.0098.
For UAGUGACUCACCUUCACUGAGACAUUAACA, the “pre-steady-state target cleavage rate” value was 0.171 ± 0.024.
For UAGUCUGUCACCUGUCUCUGAGAGAUUAACA, the “pre-steady-state target cleavage rate” value was 0.545 ± 0.032.
In the case of UAGUGACUCACCUACUCUGAGAGAUUAAGA, the “pre-steady-state target cleavage rate” value is reported as 0.046 ± 0.011.
UAGUGAGUCACCUUCUCUGAGACAUUAACA was tested, and the “pre-steady-state target cleavage rate” value was 0.224 ± 0.022.
“UAGUGACAGUGCUUCUCUGAGAGAUUAACC [g2:g19:cont:t1C]” was tested, and the “pre-steady-state target cleavage rate” value was 0.0079 ± 0.0021.
With UAGUCUGUCACCUUCUCUGAGAAAUUAACA the “pre-steady-state target cleavage rate” value was 0.271 ± 0.03.
